Measurements as given in PubChem BioAssay AID1814 (Broad Institute, 2009).
Among all 300,000 compounds or so, about 22,000 (7.3%) were called active. Inconclusive results, whose numbers are uncertain, are shown with a selection of clear calls. Cut-off read from the data, not from the text of the source: active = activity score below about -60%; inconclusive = mostly about -28% to -61%; inactive = positive scores.

Test: Activators via SNCA 5'UTR binding, MLPCN (AID 1814)
Details: alpha-synuclein 5'UTR reporter, activators screen; hits give low values; tested at 7.5 µM

| Compound | activity score |
| --- | --- |
| CCOc1ccc(C(=O)NCCc2ccccc2)cc1 | inactive: 61.1% |
| OCOCCCn1c(C2CCCN2c2nc(-c3ccc(F)cc3)cs2)nc2cc(Cl)c(N3CCCCC3)cc21 (centres undefined) | inconclusive: -42.3% |
| CC(=O)O[C@@]12CO[C@@H]1C[C@H](O)[C@@]1(C)C(=O)[C@H](O)C3=C(C)[C@@H](OC(=O)[C@H](O)[C@@H](NC(=O)OC(C)(C)C)c4ccccc4)C[C@](O)([C@@H](OC(=O)c4ccccc4)[C@H]21)C3(C)C | inactive: 71.8% |
| Fc1ccc(Nc2ccc(-c3ccc(F)cc3)nn2)cc1 | active: -161% |
| CCN(C(=O)c1cc2c(=O)n3cccc(C)c3nc2s1)C1CCCCC1 | inconclusive: -53.7% |
| CN(c1nc(-c2ccccc2)cs1)C1CCS(=O)(=O)C1 (centres undefined) | inconclusive: -54.9% |
| CN(C)c1ccc2c(c1)OC(N)=C(C#N)C2c1cccc(F)c1 (centres undefined) | inactive: 68% |
| CCOC(=O)N1CCN(C(=O)CSCc2ccccc2Cl)CC1 | inconclusive: -60.8% |
| CCN1/C(=C/c2sc(-c3ccccc3C)c[n+]2C)Sc2ccccc21 | inactive: 94.4% |
| COc1ccc2nc(NC(=O)c3cccc(OCc4c(C)noc4C)c3)sc2c1 | inconclusive: -57.2% |
| Cc1ccc(COc2ccc(/C=N/O)cc2)cc1 | active: -131% |
| NNC(=O)c1cc2sccc2s1 | active: -79.5% |
| O=C(Nc1ccc(/C=C/c2nc3ccccc3o2)cc1)c1cccc(C(F)(F)F)c1 | inconclusive: -57.5% |
| Cc1cc(NC(=O)c2ccc3c(c2)OCO3)no1 | inconclusive: -60.3% |
| CCCCNC(=O)C(=O)N/N=C/c1ccc(OCC(=O)Nc2cccc(OC)c2)c(OC)c1 | inconclusive: -52.1% |
| CC1=NN(c2nc(-c3ccc(C)cc3)cs2)C(=O)C1N=Nc1ccccc1O (centres undefined) | inactive: 63.3% |
| COc1ccc(C(CC(=O)Nc2cc(C)ccn2)N2Cc3ccccc3C2=O)cc1 (centres undefined) | inconclusive: -58.1% |
| CCOc1ccc(C(=O)COC(=O)c2c(-c3ccccc3)noc2C)cc1 | active: -62.7% |
| Cc1ccc(C2c3c(oc4ccccc4c3=O)C(=O)N2CCCN2CCOCC2)o1 (centres undefined) | inconclusive: -31% |
| COc1cc2[nH]c3c(=O)n4c(nc3c2cc1OC)SCCC4 | active: -97% |

| Compound | activity score |
| --- | --- |
| O=Cc1c(Sc2ccccc2)nc2ccccn2c1=O | inconclusive: -27.6% |
| COc1ccc(F)cc1CN1CCN(c2ncnc3scc(-c4ccccc4)c23)CC1 | inactive: 98.1% |
| Oc1ccc2ccccc2c1/C=N/Nc1nnc(-c2ncc[nH]2)c2ccccc12 | inactive: 102% |
| COc1ccc(O)c(C(=O)/C=C/c2cc3ccccc3o2)c1 | inconclusive: -60.2% |
| Cc1ccc(NC(=O)C2CCN(C(=O)[C@@H]3Cc4ccccc4CN3)CC2)cc1 | inconclusive: -58.5% |
| S=c1[nH]nc(-c2ccc(Cl)cc2Cl)n1-c1ccc2c(c1)OCCO2 | inconclusive: -46.6% |
| COc1ccc(-c2c(C#N)c(N)nc3c2CCc2ccccc2-3)cc1OC | inconclusive: -40.3% |
| CN(C)CCCN(C(=O)c1ccco1)c1nc2cc3c(cc2s1)OCO3 | active: -185% |
| Clc1ccc(-c2cn3c(n2)SCC3)cc1 | active: -186% |
| COC(=O)[C@H](CCSC)NC(=O)Nc1ccc(C(C)C)cc1 | inconclusive: -49.9% |
| N/C(=N\OC(=O)CCCc1ccccc1)c1cccnc1 | inconclusive: -61.4% |
| Cc1ccc(CNc2nc3ccccc3n2C)o1 | inconclusive: -58.1% |
| CN1CCc2c(sc(NC(=O)c3ccc4ccccc4c3)c2C(N)=O)C1 | active: -108% |
| COC(=O)c1cc2c(s1)-c1ccccc1OC2 | inconclusive: -54.4% |
| CC1Cc2ccccc2N1C(=O)/C=C/c1cccc(F)c1 (centres undefined) | active: -170% |
| Cc1cc(=O)oc2cc(NC(=S)NCc3ccccn3)ccc12 | inconclusive: -36.9% |
| Cn1ccnc1SCC(=O)Nc1ccc2c(c1)COC2=O | inconclusive: -39% |
| Oc1ccccc1N=Nc1nc(-c2ccccc2)c(-c2ccccc2)[nH]1 | inactive: 107% |
| NC(N)=Nc1nc(C2COc3ccccc3O2)cs1 (centres undefined) | active: -64% |
| O=C(CCc1ccccc1)Nc1ccccc1[N+](=O)[O-] | active: -82.8% |

| Compound | activity score |
| --- | --- |
| O=C(Cn1cnc2c(oc3ccccc32)c1=O)N1CCCC1 | inconclusive: -40.4% |
| CCOc1ccc(-c2cc(CCCC(=O)NCCc3ccc(OC)c(OC)c3OC)no2)cc1 | inactive: 56.6% |
| CCOC(=O)c1sc(NC(=O)Nc2ccccc2F)nc1C | inactive: 69.8% |
| CCOC(=O)C1=C(COC(=O)c2ccc(OC(C)C)cc2)NC(=O)NC1C (centres undefined) | inconclusive: -31% |
| COC(=O)Cc1ccc(NC(=O)c2ccc(C(C)(C)C)cc2)cc1 | inactive: 124% |
| COc1ccc(N=C2C(=Nc3ccc(OC)cc3)N(c3ccc(N(C)C)cc3)C(=S)N2c2ccc(OC)cc2)cc1 | inactive: 98.6% |
| CNC(=O)COC(=O)c1ccc(-c2nc3ccccc3s2)s1 | active: -161% |
| CCOC(=S)SCC(=O)Nc1nc(-c2ccc(Br)cc2)cs1 | inactive: 69.9% |
| Cc1cccc(C)c1NC(=O)c1cccc(COc2cc(Cl)ccc2Cl)c1 | inconclusive: -53% |
| CCn1c(-c2ccc(-c3ccccc3)cc2)c[nH]c1=S | active: -65.1% |
| CCCCCCCC(=O)Nc1ccc(C(=O)N/N=C/c2cccc([N+](=O)[O-])c2)cc1 | inactive: 76.2% |
| C/C(=N\NC(=O)c1cccc(Br)c1)c1ccccn1 | inactive: 108% |
| CCC(=O)Nc1ccc(C(=O)Nc2cc(C)on2)cc1 | inconclusive: -61.5% |
| Cc1cc(C)nc(Nc2nc(=O)c3ccccc3s2)n1 | active: -134% |
| Cc1ccc(/C=C/C(=O)Nc2ccc([N+](=O)[O-])cc2)o1 | inconclusive: -57.1% |
| Nc1ccccc1C(=O)NNc1c2ccccc2nc2ccccc12 | inconclusive: -52.3% |
| CN(C)/C=N/c1ncc(C(=O)OC(C)(C)C)s1 | inconclusive: -44.1% |
| S=C(NCC1CCCO1)Nc1ccc(Nc2ccccc2)cc1 (centres undefined) | inconclusive: -55.8% |
| CCc1cccc(CC)c1NC(=O)Cn1c(-c2ccc(F)cc2)noc1=O | inconclusive: -45% |
